According to PubChem BioAssay AID1460 (National Center for Advancing Translational Sciences (NCATS), 2008):
The campaign covered roughly 270,000 compounds. About 5,800 (2.1%) were called active. The shares of active, inactive and inconclusive entries below differ from those in the screen. The call rests on the fitted dose curve; in most records, active means well fitted inhibition curve with a large enough effect; inconclusive means small, poorly fitted or top-dose-only effect; inactive means flat fitted curve, though single readings scatter. Where the call is inconclusive, the potency comes from a doubtful curve fit.

Molecular target: Microtubule-associated protein tau (Homo sapiens) (UniProt P10636)
UniProt P10636, sequence (P10636 whole entry, looked up): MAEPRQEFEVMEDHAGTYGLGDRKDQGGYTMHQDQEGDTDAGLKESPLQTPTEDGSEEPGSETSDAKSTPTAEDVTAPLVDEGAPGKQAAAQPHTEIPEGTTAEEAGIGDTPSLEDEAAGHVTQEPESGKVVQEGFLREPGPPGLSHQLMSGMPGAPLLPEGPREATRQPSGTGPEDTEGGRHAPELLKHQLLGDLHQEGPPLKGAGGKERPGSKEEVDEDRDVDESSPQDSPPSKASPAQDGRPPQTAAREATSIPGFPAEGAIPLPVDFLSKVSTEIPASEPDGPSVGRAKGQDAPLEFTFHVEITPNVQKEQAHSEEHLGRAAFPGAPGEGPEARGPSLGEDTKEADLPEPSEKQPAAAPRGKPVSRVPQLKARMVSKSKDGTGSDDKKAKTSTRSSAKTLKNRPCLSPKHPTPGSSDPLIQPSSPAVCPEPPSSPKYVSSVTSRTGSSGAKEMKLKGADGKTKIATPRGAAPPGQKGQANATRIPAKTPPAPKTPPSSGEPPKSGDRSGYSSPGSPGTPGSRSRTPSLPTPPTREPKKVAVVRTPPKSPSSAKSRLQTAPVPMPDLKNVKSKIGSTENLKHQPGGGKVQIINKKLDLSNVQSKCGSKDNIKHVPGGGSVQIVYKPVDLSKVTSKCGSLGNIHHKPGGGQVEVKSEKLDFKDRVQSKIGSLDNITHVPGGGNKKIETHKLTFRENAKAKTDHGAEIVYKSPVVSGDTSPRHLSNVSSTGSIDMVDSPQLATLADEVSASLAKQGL
Assay: qHTS for Inhibitors of Tau Fibril Formation, Thioflavin T Binding; further: nearly all actives have a fitted effect of over 55% in size
Details: recombinant tau K18 P301L (four-repeat tau fragment), heparin-induced fibrillization, ThT fluorescence; series mostly up to 57.4 µM; activity, negative = inhibition: at the top concentration
How it was run: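 Aggregation was driven by heparin (20 uM final) acting on recombinant tau […] bearing P301L in 100 mM sodium acetate pH 7; fibrils were detected with Thioflavin T.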
On the % scale 0 is the no-effect control and ±100 the full control effect; potency means the concentration at half of the fitted maximal effect; tags describe the fitted curve by direction and shape.

Structure (SMILES)	Potency	activity, negative = inhibition
CCOC(=S)SCC(=O)Nc1nccs1	inconclusive: 20 µM [inhibitor, partial curve]	–
COc1ccc(C(=S)NC2CCCCC2)cc1	inconclusive: 35.5 µM [inhibitor, partial curve]	–
O=C(CCc1ccc(Oc2cc([N+](=O)[O-])cc([N+](=O)[O-])c2)cc1)N1CCCCCC1	inconclusive: 17.8 µM [inhibitor, partial curve]	–
O=C(c1csc2c1CCCC2)N1CCN(c2cccc(C(F)(F)F)c2)CC1	inconclusive: 35.5 µM [inhibitor, partial curve]	–
CCN1CCCCC(=N/O)/C(=N/O)CCCC1	–	inactive: -8.27%
Cc1ccc(CCNC(=O)c2ccc(CSCc3ccc(C)cc3)o2)cc1	inconclusive: 3.16 µM [inhibitor, partial curve]	–
O=C(N/N=C/c1ccc(Cl)c([N+](=O)[O-])c1)c1cc(-c2ccc3c4c(cccc24)CC3)n[nH]1	inconclusive: 3.16 µM [inhibitor, full curve]	–
CC(Cc1cccs1)NC(=O)Nc1ccc(Cl)cc1 (stereo unspecified)	–	inactive: -4.81%
Cc1ccc(N=Nc2c(O)n(CN3CCOCC3)c3ccccc23)cc1	inconclusive: 2.82 µM [inhibitor, partial curve]	–
CC12CN3CC(C)(CN(C1)C3c1ccc(OCc3ccccc3)cc1)C2=O (stereo unspecified)	–	inactive: -6.83%
CO[C@@H]1COC(=O)[C@@H](CCSC)NC(=O)C/C=C\[C@@H](C)COC(=O)[C@H](C)NC(=O)C/C=C\[C@H]1C	–	inactive: -16.4% [at 11.5 µM]
COC(=O)c1cc(OC)c(OC)cc1NC(=S)Nc1cccc(C(C)=O)c1	–	inactive: -5.31%
O=c1cc(CO)occ1O	–	inactive: -2.59%
CN(C)c1cccc(C(=O)Nc2ccc(-c3nc4ccccc4s3)cc2)c1	inconclusive: 1.26 µM [inhibitor, full curve]	–
N#Cc1ccc(-c2csc(NNC(=O)c3ccc(Br)cc3)n2)cc1	inconclusive: 11.2 µM [inhibitor, partial curve]	–
CC1=C(c2ccc(Cl)cc2)S(=O)(=O)NC1=NCc1ccc(C)cc1	–	inactive: -14.5%
Clc1ccc(-n2nnc(-c3cccnc3Cl)n2)cn1	inconclusive: 35.5 µM [inhibitor, single point]	–
COc1ccc(NC(=O)c2cc(-c3cc(C)cc(C)c3O)n[nH]2)cc1Cl	inconclusive: 0.708 µM [inhibitor, full curve]	–
COc1cc(/C=N/Nc2nc3ccccc3[nH]2)ccc1O	active: 5.01 µM	–
O=C(Nc1ccc(COc2ccccc2)cc1)c1cccc([N+](=O)[O-])c1	inconclusive: 0.708 µM [inhibitor, full curve]	–
COc1cc(OC)c2ccc(=O)oc2c1C(CC(=O)N1CCN(c2ccccc2)CC1)c1ccc2c(c1)OCO2 (stereo unspecified)	inconclusive: 25.1 µM [inhibitor, single point]	–
CCc1ccc(NC(=O)c2oc3c(c2C)-c2[nH]ncc2CC3)cc1	inconclusive: 39.8 µM [inhibitor, single point]	–
O=C(Nc1ccccc1-c1ccccc1)c1ccc(Br)o1	inconclusive: 35.5 µM [inhibitor, single point]	–

Structure (SMILES)	Potency	activity, negative = inhibition
Cc1ccc(C2NC(=O)c3c(sc(C)c3C)N2)c(O)c1 (stereo unspecified)	inconclusive: 10 µM [inhibitor, partial curve]	–
CCc1ccc(-n2c(SCC(=O)Nc3cc(C)[nH]n3)nc3[nH]ncc3c2=O)cc1	inconclusive: 31.6 µM [inhibitor, partial curve]	–
Oc1ccc(Nc2nc(-c3ccc(Cl)cc3)nc3ccccc23)cc1	active: 12.6 µM	–
CC(C)C12CN3CC(C(C)C)(CN(C1)C3c1ccc3c(c1)OCO3)C2=O (stereo unspecified)	–	inactive: -7.81%
CCOc1ccc(NC2=CC(=O)CC(c3ccco3)C2)cc1 (stereo unspecified)	–	inactive: -7.38%
CC1(C)C=Cc2c(cc3occ(-c4ccc5c(c4)OCO5)c(=O)c3c2O)O1	inconclusive: 3.16 µM [inhibitor, full curve]	–
CCOCCCn1c(=N)c(C(=O)NC2CCCC2)cc2c(=O)n3cccc(C)c3nc21	–	inactive: -3.42%
Cc1nn(-c2ccccc2)c(Cl)c1/C=N/NC(=O)C1COc2ccccc2O1 (stereo unspecified)	inconclusive: 22.4 µM [inhibitor, partial curve]	–
Cc1nnc2c3ccccc3nc(N3CCN(c4cccc(Cl)c4)CC3)n12	inconclusive: 31.6 µM [inhibitor, single point]	–
CCOC(=O)CCN1C(=O)[C@H]2[C@H]3[C@H](O)[C@H](O)C/C(=N/OCC(C)C)[C@@H]3CC[C@@H]2C1=O	–	inactive: -14% [at 11.5 µM]
COC(=O)c1ccccc1NC(=O)c1cc(=O)c2ccc(C)c(C)c2o1	–	inactive: -0.213%
Cn1nnnc1SCCCNCc1ccccc1OCc1ccccc1F	–	inactive: 7.57%
N#Cc1ccc[n+](CC(=O)c2ccc(NC(=O)c3ccccc3)cc2)c1	inconclusive: 11.2 µM [inhibitor, partial curve, poor fit]	–
COc1ccc(NC(=O)/C(Cl)=C(/Cl)S(=O)Cc2ccccc2)cn1 (stereo unspecified)	inconclusive: 3.98 µM [inhibitor, full curve]	–
CCOc1nc(NCCC2=CCCCC2)nc(N2CCOCC2)n1	–	inactive: -7.04%
CCc1ccc(NC(=O)CN2C(=O)CCSc3ccc(S(=O)(=O)N4CCCC4)cc32)cc1	–	inactive: 8.06%
CCN(CC)c1ccc(NC(=O)CC2Oc3ccccc3NC2=O)c(C)c1 (stereo unspecified)	inconclusive: 25.1 µM [inhibitor, single point]	–
CC1C(=O)N(C)C(=O)c2nc[nH]c21 (stereo unspecified)	–	inactive: 6.79%
COc1cc(C(=S)N2CCCC2)ccc1OC(=O)c1ccc(Cl)cc1[N+](=O)[O-]	inconclusive: 25.1 µM [inhibitor, single point]	–
Cc1ccc(N2C(=O)C3C4C=CC(CNC(=S)Nc5ccc(F)cc5)(O4)C3C2=O)cc1 (stereo unspecified)	–	inactive: -1.36%
C/C(=N\NC(=O)c1c(C)nc2ccccn12)c1ccc(N2CCOCC2)cc1	inconclusive: 2 µM [inhibitor, partial curve]	–
CCc1n[nH]c(=S)n1/N=C/c1cc(Br)c(OC)cc1OC	inconclusive: 20 µM [inhibitor, single point]	–
COc1ccc(OC)c(NC(=O)N2CCCC(C(=O)c3ccccc3OC)C2)c1 (stereo unspecified)	–	inactive: -22.7%
